From publication PMC9911399, “Two distinct binding modes provide the RNA-binding protein RbFox with extraordinary sequence specificity”
Residue numbers refer to the chain shown, from its start. This is one part of the list.

T1: RBFOX1 RRM RbFoxmut (Fox-RRM*) (Homo sapiens, UniProt Q9NWB1 109-208, R118D;E147R;N151S;E152T)
T1 sequence: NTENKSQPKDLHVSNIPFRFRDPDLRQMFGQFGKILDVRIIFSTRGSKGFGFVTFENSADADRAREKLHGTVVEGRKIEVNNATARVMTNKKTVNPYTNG

B1: CAGUUUG (DNA:RNA)
RNA: GGGAGACCGGAAUUCAGAUUGUCCCAGUUUGUUAAAUCCCGUCGUAGCCACCA
DNA 1: CAATCTGAATTCCGGTCTCCC
DNA 2: TGGTGGCTACGACGGGATT
B2: UCUAGCA (DNA:RNA)
RNA: GGGAGACCGGAAUUCAGAUUGUCCUCUAGCAUUAAAUCCCGUCGUAGCCACCA
DNA 1: CAATCTGAATTCCGGTCTCCC
DNA 2: TGGTGGCTACGACGGGATT
B3: UGUAAAC (DNA:RNA)
RNA: B2 RNA with C26G, G29A, C30A, A31C
DNA 1: CAATCTGAATTCCGGTCTCCC
DNA 2: TGGTGGCTACGACGGGATT
B4: UUUCCGA (DNA:RNA)
RNA: B2 RNA with C26U, A28C, G29C, C30G
DNA 1: CAATCTGAATTCCGGTCTCCC
DNA 2: TGGTGGCTACGACGGGATT
B5: CUGAUUG (DNA:RNA)
RNA: B1 RNA with A26U, U28A
DNA 1: CAATCTGAATTCCGGTCTCCC
DNA 2: TGGTGGCTACGACGGGATT
B6: UCUAAUG (DNA:RNA)
RNA: B2 RNA with G29A, C30U, A31G
DNA 1: CAATCTGAATTCCGGTCTCCC
DNA 2: TGGTGGCTACGACGGGATT
B7: CGAGCCG (DNA:RNA)
RNA: B1 RNA with A26G, G27A, U28G, U29C, U30C
DNA 1: CAATCTGAATTCCGGTCTCCC
DNA 2: TGGTGGCTACGACGGGATT
B8: GAGUAAU (DNA:RNA)
RNA: B1 RNA with C25G, U29A, U30A, G31U
DNA 1: CAATCTGAATTCCGGTCTCCC
DNA 2: TGGTGGCTACGACGGGATT
B9: CCGGCGG (DNA:RNA)
RNA: B1 RNA with A26C, U28G, U29C, U30G
DNA 1: CAATCTGAATTCCGGTCTCCC
DNA 2: TGGTGGCTACGACGGGATT
B10: UACCAAU (DNA:RNA)
RNA: B1 RNA with C25U, G27C, U28C, U29A, U30A, G31U
DNA 1: CAATCTGAATTCCGGTCTCCC
DNA 2: TGGTGGCTACGACGGGATT
B11: UCUAGUA (DNA:RNA)
RNA: B2 RNA with C30U
DNA 1: CAATCTGAATTCCGGTCTCCC
DNA 2: TGGTGGCTACGACGGGATT
B12: UUCCCGC (DNA:RNA)
RNA: B2 RNA with C26U, U27C, A28C, G29C, C30G, A31C
DNA 1: CAATCTGAATTCCGGTCTCCC
DNA 2: TGGTGGCTACGACGGGATT
B13: UUCAUCG (DNA:RNA)
RNA: B2 RNA with C26U, U27C, G29U, A31G
DNA 1: CAATCTGAATTCCGGTCTCCC
DNA 2: TGGTGGCTACGACGGGATT
B14: UGGAGGG (DNA:RNA)
RNA: B2 RNA with C26G, U27G, C30G, A31G
DNA 1: CAATCTGAATTCCGGTCTCCC
DNA 2: TGGTGGCTACGACGGGATT
B15: CUGCCCC (DNA:RNA)
RNA: B1 RNA with A26U, U28C, U29C, U30C, G31C
DNA 1: CAATCTGAATTCCGGTCTCCC
DNA 2: TGGTGGCTACGACGGGATT
B16: CUUCCGU (DNA:RNA)
RNA: B1 RNA with A26U, G27U, U28C, U29C, U30G, G31U
DNA 1: CAATCTGAATTCCGGTCTCCC
DNA 2: TGGTGGCTACGACGGGATT
B17: GAUGCAC (DNA:RNA)
RNA: B1 RNA with C25G, G27U, U28G, U29C, U30A, G31C
DNA 1: CAATCTGAATTCCGGTCTCCC
DNA 2: TGGTGGCTACGACGGGATT
B18: CCCUUUU (DNA:RNA)
RNA: B1 RNA with A26C, G27C, G31U
DNA 1: CAATCTGAATTCCGGTCTCCC
DNA 2: TGGTGGCTACGACGGGATT
B19: CUCAGCU (DNA:RNA)
RNA: B2 RNA with U25C, C26U, U27C, A31U
DNA 1: CAATCTGAATTCCGGTCTCCC
DNA 2: TGGTGGCTACGACGGGATT
B20: CCUAGAC (DNA:RNA)
RNA: B2 RNA with U25C, C30A, A31C
DNA 1: CAATCTGAATTCCGGTCTCCC
DNA 2: TGGTGGCTACGACGGGATT
B21: AGGCAUG (DNA:RNA)
RNA: B1 RNA with C25A, A26G, U28C, U29A
DNA 1: CAATCTGAATTCCGGTCTCCC
DNA 2: TGGTGGCTACGACGGGATT
B22: UAACCGC (DNA:RNA)
RNA: B1 RNA with C25U, G27A, U28C, U29C, U30G, G31C
DNA 1: CAATCTGAATTCCGGTCTCCC
DNA 2: TGGTGGCTACGACGGGATT
B23: UAGACGA (DNA:RNA)
RNA: B2 RNA with C26A, U27G, G29C, C30G
DNA 1: CAATCTGAATTCCGGTCTCCC
DNA 2: TGGTGGCTACGACGGGATT
B24: AUCAGUU (DNA:RNA)
RNA: B2 RNA with U25A, C26U, U27C, C30U, A31U
DNA 1: CAATCTGAATTCCGGTCTCCC
DNA 2: TGGTGGCTACGACGGGATT
B25: UAUACAA (DNA:RNA)
RNA: B2 RNA with C26A, G29C, C30A
DNA 1: CAATCTGAATTCCGGTCTCCC
DNA 2: TGGTGGCTACGACGGGATT
B26: UAACUUA (DNA:RNA)
RNA: B1 RNA with C25U, G27A, U28C, G31A
DNA 1: CAATCTGAATTCCGGTCTCCC
DNA 2: TGGTGGCTACGACGGGATT
B27: CCGACUA (DNA:RNA)
RNA: B1 RNA with A26C, U28A, U29C, G31A
DNA 1: CAATCTGAATTCCGGTCTCCC
DNA 2: TGGTGGCTACGACGGGATT
B28: UCACCUU (DNA:RNA)
RNA: B2 RNA with U27A, A28C, G29C, C30U, A31U
DNA 1: CAATCTGAATTCCGGTCTCCC
DNA 2: TGGTGGCTACGACGGGATT
B29: ACUGGUA (DNA:RNA)
RNA: B2 RNA with U25A, A28G, C30U
DNA 1: CAATCTGAATTCCGGTCTCCC
DNA 2: TGGTGGCTACGACGGGATT
B30: AGCACUA (DNA:RNA)
RNA: B2 RNA with U25A, C26G, U27C, G29C, C30U
DNA 1: CAATCTGAATTCCGGTCTCCC
DNA 2: TGGTGGCTACGACGGGATT
B31: UCAGACU (DNA:RNA)
RNA: B2 RNA with U27A, A28G, G29A, A31U
DNA 1: CAATCTGAATTCCGGTCTCCC
DNA 2: TGGTGGCTACGACGGGATT

Target: T1, RBFOX1 RRM RbFoxmut (Fox-RRM*)
Test: EMSA; HiTS-Eq, 1 nM pool, 10 min; buffer printed only for the single-RNA assays: 10 mM Tris pH 7.5, 150 mM NaCl, 3.4 mM EDTA, 0.001% NP-40, 30 C
Settings: tags: His6 N-terminal (pET28a); label: 5' 32P
Procedure, shortened: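 Purified RbFox RRM, wild type or mutant, was incubated for 10 min in 50 µL with 1 nM of a 5′-radiolabelled RNA pool carrying 7 randomized nucleotides, whose flanks were annealed to DNA oligonucleotides, over a series of increasing protein concentrations. Unbound RNA was resolved on 8% native PAGE, cut out, reverse-transcribed, barcoded by PCR and sequenced on an Illumina HiSeq 2500. Relative association constants were derived from changes in read counts for each RNA species versus the control reaction and normalised to the cognate motif.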

Binder	binding signal
B1	0.248 KA relative to UGCAUGU
B2	0.111 KA relative to UGCAUGU
B3	0.0616 KA relative to UGCAUGU
B4	0.0707 KA relative to UGCAUGU
B5	0.234 KA relative to UGCAUGU
B6	0.127 KA relative to UGCAUGU
B7	0.102 KA relative to UGCAUGU
B8	0.114 KA relative to UGCAUGU
B9	0.102 KA relative to UGCAUGU
B10	0.0762 KA relative to UGCAUGU
B11	0.12 KA relative to UGCAUGU
B12	0.0732 KA relative to UGCAUGU
B13	0.113 KA relative to UGCAUGU
B14	0.049 KA relative to UGCAUGU
B15	0.0441 KA relative to UGCAUGU
B16	0.0657 KA relative to UGCAUGU

Binder	binding signal
B17	0.0758 KA relative to UGCAUGU
B18	0.0591 KA relative to UGCAUGU
B19	0.0972 KA relative to UGCAUGU
B20	0.101 KA relative to UGCAUGU
B21	0.799 KA relative to UGCAUGU
B22	0.104 KA relative to UGCAUGU
B23	0.0514 KA relative to UGCAUGU
B24	0.0812 KA relative to UGCAUGU
B25	0.0208 KA relative to UGCAUGU
B26	0.0918 KA relative to UGCAUGU
B27	0.0954 KA relative to UGCAUGU
B28	0.0993 KA relative to UGCAUGU
B29	0.167 KA relative to UGCAUGU
B30	0.0872 KA relative to UGCAUGU
B31	0.0699 KA relative to UGCAUGU
